According to the supplement of paper PMC11417369:
This is one part of the list.

System: PfAP2-HC AP2 domain (GST-tagged)
Experiment: gcPBM binding intensity (ln(normalized median fluorescence intensity)); higher = stronger DNA binding
Summary of the method: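 Probes on an Agilent 4 × 180k array were primer-extended, double-stranded and 36 bp long, taken from intergenic genomic regions, with negative controls added. GST-tagged P. falciparum DNA-binding domains from E. coli, about 25 μg on average, were applied to the array for 1 h in 1× PBS containing 1% milk, 0.2 mg/ml BSA, 0.5% salmon testes DNA and 0.03% Triton X-100. Binding intensity, obtained after Alexa488 anti-GST antibody detection and a 488 nm scan, is the highest Masliner-normalised natural-log median intensity across replicate spots of either probe orientation.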

In order of falling “gcPBM binding intensity (ln)” value:
1. CGCGCACACGGACACACACACACACGGATATAAATA [CACACA_site7102]  11.3
2. TATACCTATAGACACACACACATATAGATTTATATA [CACACA_site7124]  11.1
3. CCAACAAAAATAAGCACACACAAATATACATACATA [CACACA_site3606]  11.1
4. AAAAAAAAAAAAAACACACACAAATTTAATCTATAT [CACACA_site6894]  10.9
5. CGCATACACAGACACACACACACATATAAATATGTA [CACACA_site6444]  10.7
6. AAAGGATATGGACACACACACACATATATATATATA [CACACA_site8686]  10.6
7. AACTTTTAGAAGAACACACACATATAGATTATGACC [CACACA_site6256]  10.6
8. AATAAAATAATAAAAGCACACAAGAATACAGACAAA [CACACA_site112]  10.3
9. ATGCTTTTGTCATGTGCACACACGTATATATTATAT [CACACA_site4163]  10.3
10. TATTAGATATAATATATACACACCAACGAACGAAGA [CACACA_site1134]  10.1
11. CAAAACCTACATAACATACACACGCATATATAGAAT [CACACA_site2846]  10.1
12. CATGCAATATTAAACACACACTCATATAGCACAATA [CACACA_site6182]  10.1
13. CACAAAATAAATTAAACACACAACATCAGATATGTA [CACACA_site6529]  10.1
14. TACAAATATATATGCACACACATATACATACATATA [CACACA_site2182]  10
15. TGTTGTTACATATATACACACATATATATATTATAT [CACACA_site2397]  10
16. TATTAAAGGGGTTTCACACACATGTATAATTAATTT [CACACA_site200]  9.98
17. ATAAACTGATGTGTATGTACACATGTAATAATAAAT [XGTACX_site7649]  9.98
18. CATATTTCTTTATTGGCACACATTTTTTCAATTATA [CACACA_site1618]  9.97
19. ACATGTATTTATAAGAGTACATATGTGTGCATGTTT [XGTACX_site7946]  9.96
20. ATATATTTTTTAAACACACACATAAATATTTGTGTA [CACACA_site2879]  9.91
21. TAATATAGTATAGTATGTACATATAATTAGAATATT [XGTACX_site4053]  9.9
22. TAATATAATATATGCACACAAATATGTATATATGTG [CACACA_site2134]  9.88
23. TATTTAATATATTTATGTACATATTTATTTATTATT [XGTACX_site524]  9.87
24. TTTATTTATATTTATACACACAAACATAATACTACT [CACACA_site7039]  9.87
25. ATGTAAAACATAAAATGTACATATTATACAAACTAT [XGTACX_site5797]  9.87
26. TAAGTATAAATATTTACACACATTTGTTTTTTTTTA [CACACA_site7731]  9.87
27. TGTGTTGTAACAAAATGTACGAGCTTGATGTAGAAT [XGTACX_site2293]  9.86
28. AAGGATATAAAAAAACGTACGTACGATAATATAATT [XGTACX_site1292]  9.86
29. TGGTATATATTTCCTTGTACATATAATATATATTGT [XGTACX_site3961]  9.84
30. AATGTAGGTTTATTTACACACAAATATAAATATATA [CACACA_site1523]  9.84
31. TCGAACATTAACATAACACACATATATATATATATA [CACACA_site2900]  9.84
32. GTTCATACTTAATATTGTACTTTTCATGTAGTGTAT [XGTACX_site6613]  9.83
33. TCTAAGTATAAAGACACACAGAATAAAAAAAAATAT [CACACA_site2367]  9.81
34. GGATAATATATTAGAACACACATATATCTGTAAAAA [CACACA_site4266]  9.81
35. TTGAAAATACAAAATTGTACAAAGATTTAAATAAAA [XGTACX_site1182]  9.79
36. TTAATTTATTTATGCACACATATATAATTACACATA [CACACA_site4544]  9.79
37. TGAAATAAATAATGCACACTCTACAGATATACGTAT [CACACA_site5270]  9.78
38. TTTTATCGATATATCTGTACATATTACTTATAATAA [XGTACX_site57]  9.78
39. AATTTGTTATGTATATGTACATAAATAGATATATGA [XGTACX_site3930]  9.77
40. AGAATAATAAAATGGGTGCAATAGTTTTTTTTTTTT [GTGCAC_site9823]  9.75
41. ATATATATCTATATTTGTACATATTACATTCAAGTT [XGTACX_site1749]  9.75
42. TTTAGGAAAGGCGGCACACATTTATATATTTATTTA [CACACA_site5931]  9.74
43. TATATGAAAATGTTCATACACACATAAAAAAAAAAA [CACACA_site3237]  9.73
44. TCGTCTCTTCTTGTTCTGTTTTAGAAGGCTATATAT [CACACA_negctrl_site180]  9.73
45. TGCTATAATTTATATACACACAAATATATACTCATA [CACACA_site6111]  9.73
46. ACAGTATCTGGTAGCTGTACGGATTGTAGAGAGTAG [XGTACX_site4872]  9.71
47. TCCAGGTATTTATTCTGTACACATAAAACATTTTAT [XGTACX_site8472]  9.71
48. TTTTTTTTTTCTTGTTGTACTTTTAATAATTCATAT [XGTACX_site4704]  9.71
49. AAATAAATATTTATATGTACATATATTTTATAATAC [XGTACX_site7041]  9.7
50. CAACACTTATTGAAACGTACGCATATAGTTTCTTTT [XGTACX_site8960]  9.7
51. TTTTTTTTTTTTCTGTGTACATATATAATATATATA [XGTACX_site1592]  9.7
52. AACCATATTTAGATTACACACAGTTTAAATATTTTA [CACACA_site6712]  9.68
53. AAGGTTATTTATATATGTACTTAATATATATATATG [XGTACX_site886]  9.68
54. AAAAAAAAAAAAAATGCATGTGCGTAAATAATAATA [TGCATGCA_site793]  9.68
55. TATTTATTTATGTGTTGTACAAATAAATAGAGGTAT [XGTACX_site6408]  9.67
56. ATCATGTTATATACATGTACATATATATATATATAT [XGTACX_site1329]  9.67
57. AAAATATATATGTATGTTTATATGTTTATATATATT [XGTACX_negctrl_site337]  9.67
58. TTTATAATATACATAACACACAATTATTATTTCTTA [CACACA_site3624]  9.67
59. AATTTTTTATTAAACACACAAACATATATATATATA [CACACA_site1937]  9.66
60. TAATATACATAATAATGTACATATTTTCATATATAC [XGTACX_site6913]  9.66
61. ATATCTATATTTTAAAGTACGTAGTAAAAAGAAAAA [XGTACX_site4323]  9.63
62. AGTATTTTAATTTCAGTGCATTTTATTCTATAATTA  9.62
63. ATATATATATATATATGTACATATTTTAATAATTAA [XGTACX_site8549]  9.61
64. TTATAACAAATATAGAGTACTAAAATTTTACGTTAT [XGTACX_site1410]  9.6
65. TTTTTTTCCTTATCTATATATAATCAAATTTTCTAC [CACACA_negctrl_site867]  9.59
66. ACCATCCTTAATACTTATTTTTTCACAATTAAGTAA [GTGCAC_negctrl_site269]  9.59
67. TTTATTTATTACAATTTTTGAATCACCACACAGTCG [GTGCAC_negctrl_site413]  9.58
68. AAGTTTTCTTACAGATGTACTTTTTAAAAATAAACT [XGTACX_site6632]  9.57
69. TATTTTTCTTTATTGGTACACACGAAAAAAAAATTG [CACACA_site3054]  9.53
70. TTCATTCAAATTAACGTGCACATTATTAGTAAAAAC  9.52
71. TTATTAAAAAAAATATGTACTCACAATATAATATAT [XGTACX_site3738]  9.51
72. TTCTTATCAAGAGAAAGTACATAAAAAATTAATAAG [XGTACX_site1821]  9.5
73. AAAAAAAAAAAAAGATGTACATATATTTTTATTATA [XGTACX_site654]  9.5
74. TGTTATTACTTTATATCATCTTAAAATAAGCATATT [CACACA_negctrl_site1501]  9.48
75. TATAACTATTTATAATGTACTCATGTATAATTATAT [XGTACX_site7913]  9.48
76. TCTTGACGAAGTAGAAGGATATATATATAAAAAAAA [CACACA_negctrl_site641]  9.47
77. AAAATCCAGTTTTCAAAATTGAACAAAAAAAAAATA [GTGCAC_negctrl_site542]  9.46
78. TTATATAATTTAATAGTGCAATTATATTAATTTTTC  9.44
79. TAACATATTTTTAATACACACTCAAAAAAGTACTTA [CACACA_site5638]  9.44
80. AACTATTTTATTATATGTACTTACGAATTTATAAAA [XGTACX_site5262]  9.44
81. TATATATATATAACATGTACATAAAATACATTTATA [XGTACX_site7370]  9.44
82. TTTTATGAAAAGATGAGTACACAATACTTTTTAATT [XGTACX_site8253]  9.43
83. TTGGATTTTCCATAATGTACACATAAAAGTGTTACA [XGTACX_site4544]  9.4
84. AACCATTCTTCTAATTGTACATTGAAAAATCATGAT [XGTACX_site3854]  9.4
85. GAAATTTTTAAAAAGGTGCTTTTAACAAAAATTATT [GTGCAC_site9687]  9.39
86. AAAAAAAAATTTAAGTGTACATTCCATTTTAGTTTA [XGTACX_site5286]  9.38
87. TTTTAAAAAATATAATATAATATAATATAAAATAAA [CACACA_negctrl_site154]  9.37
88. AGGAGGTCAGTTCACAGTACCCAGAAAACTCTACGA [XGTACX_site1992]  9.29
89. TTTATATATTATATAAATATTATTATACTTTAAATA [TGCATGCA_negctrl_site236]  9.22
